# Measurements as given in the antibiotic and cytotoxicity screens of Wong et al. (2023).
# Some of the results follow.
# Legend:
# [1] = tested on: HSkMC (human skeletal muscle cells); test: cytotoxicity call (relative viability < 0.9); settings: 10 µM
# [2] = tested on: HepG2; test: cytotoxicity call (relative viability < 0.9); settings: 10 µM
# [3] = tested on: S. aureus RN4220; test: growth inhibition call (relative growth <= 0.2); settings: 50 µM
Structure (SMILES),cytotoxicity call [1],cytotoxicity call [2],growth inhibition call [3]
COc1ccc(S(=O)(=O)Nc2ccc3c(c2)C(=O)N([C@@H](C)CO)C[C@H](C)[C@H](CN(C)Cc2ccc(Cl)c(Cl)c2)O3)cc1,inactive,inactive,inactive
C[C@H](CO)N1C[C@H](C)[C@@H](CN(C)S(=O)(=O)c2cccs2)Oc2c(NC(=O)c3ccncc3)cccc2C1=O,inactive,inactive,inactive
COC(=O)c1ccc(C(=O)OC)nc1,active,active,inactive
CCCN(C)C[C@@H]1OCCCC[C@@H](C)Oc2ccc(NC(=O)NC3CCCCC3)cc2C(=O)N([C@H](C)CO)C[C@@H]1C,inactive,active,inactive
C[C@H]1CN([C@@H](C)CO)C(=O)CCCn2nncc2CO[C@@H]1CN(C)S(=O)(=O)c1ccc(Cl)cc1,inactive,inactive,inactive
C[C@H]1CN([C@@H](C)CO)C(=O)c2cc(NS(=O)(=O)c3cn(C)cn3)ccc2O[C@H]1CN(C)S(=O)(=O)c1cccs1,inactive,inactive,inactive
C[C@@H]1CN([C@@H](C)CO)C(=O)c2c(c3ccccc3n2C)-c2ccccc2CO[C@@H]1CN(C)S(=O)(=O)c1cn(C)cn1,inactive,inactive,inactive
COc1ccc(NC(=O)N(C)C[C@@H]2Oc3ccc(NC(=O)CCCN(C)C)cc3C(=O)N([C@H](C)CO)C[C@@H]2C)cc1,inactive,inactive,inactive
C[C@H](CO)N1C[C@H](C)[C@H](CN(C)C(=O)C2CCOCC2)Oc2ncc(C#Cc3cccc(F)c3)cc2C1=O,inactive,inactive,inactive
CCCCC(=O)OC1(C(=O)CO)CCC2C3CCC4=CC(=O)CCC4(C)C3C(O)CC21C (centres undefined),inactive,inactive,inactive
CCCNC(=O)N[C@@H]1C=C[C@H](CC(=O)N2CCN(C)CC2)O[C@H]1CO,inactive,inactive,inactive
Clc1cccc(Cl)c1CSc1cccs1,inactive,inactive,inactive
O=C1[C@@H]2[C@H](C(=O)N1c1ccccc1)C13COC[C@H](c4ccccc4)N1C(=O)C2(C(=O)NCc1ccccc1)O3 (some centres undefined),inactive,inactive,inactive
CCOC(=O)C1=C(C)NC(=O)N[C@@H]1C,inactive,inactive,inactive
COc1ccc(NC(=O)N(C)C[C@@H]2Oc3ccc(NC(=O)CCN4CCOCC4)cc3C(=O)N([C@H](C)CO)C[C@H]2C)cc1,inactive,inactive,inactive
C[C@H]1CN([C@@H](C)CO)S(=O)(=O)c2ccc(C#Cc3ccccn3)cc2O[C@H]1CN(C)Cc1ccccc1,inactive,inactive,inactive
COc1ccc(NC(=O)Nc2ccc3c(c2)C(=O)N([C@H](C)CO)C[C@@H](C)[C@H](CN(C)S(=O)(=O)c2cccs2)OCCCC[C@H](C)O3)cc1,inactive,inactive,inactive
Cc1noc(C)c1S(=O)(=O)N(C)C[C@@H]1Oc2ccc(NC(=O)NC3CCCCC3)cc2CC(=O)N([C@H](C)CO)C[C@@H]1C,inactive,inactive,inactive
COc1ccc2c3c([nH]c2c1)[C@@H](CO)N(C[C@]13CN(C1)C(=O)Cc1cccnc1)S(=O)(=O)c1ccc(cc1)C,inactive,inactive,inactive
C[C@H]1CN([C@@H](C)CO)C(=O)c2cc(NC(=O)CCN3CCOCC3)ccc2O[C@@H]1CN(C)Cc1ccncc1,inactive,inactive,inactive
COc1ccc(CN(C)C[C@H]2OCCCC[C@@H](C)Oc3ccc(NC(=O)Nc4ccc5c(c4)OCO5)cc3C(=O)N([C@H](C)CO)C[C@@H]2C)cc1,inactive,inactive,inactive
C#CC1(O)CCC2C3CCc4cc(OC5CCCC5)ccc4C3CCC21C (centres undefined),inactive,inactive,inactive
C[C@@H]1CN([C@@H](C)CO)C(=O)Cc2cc(NC(=O)c3ccncc3)ccc2O[C@H]1CN(C)S(=O)(=O)c1ccccc1,inactive,inactive,inactive
COc1cc(O)c2c(=O)c3cc(OC)c(OC)cc3oc2c1,inactive,inactive,inactive
COc1ccc(S(=O)(=O)N(C)C[C@H]2OCCCC[C@@H](C)Oc3ccc(NC(=O)Nc4c(C)noc4C)cc3C(=O)N([C@@H](C)CO)C[C@H]2C)cc1,inactive,inactive,inactive
C=CCNS(=O)(=O)c1cccc2nonc12,inactive,inactive,inactive
NCCSc1cc(C(F)(F)F)nc2ccccc12,inactive,inactive,inactive
C[C@@H]1CN([C@@H](C)CO)C(=O)Cc2cc(NC(=O)c3ccncc3)ccc2O[C@@H]1CN(C)S(=O)(=O)c1ccc(Cl)cc1,inactive,inactive,inactive
